Source: PMC4336329 (PLoS ONE, 2015)
Among all 310,000 compounds or so, about 2,200 (0.71%) showed an effect of 50% or more. The effect is printed as a negative number. Some of the results follow.

Each compound was assayed against human ether-à-go-go-related gene (hERG) potassium channel (human, UniProt Q12809) (assay: primary screen, population patch clamp on CHO cells stably expressing hERG).
human ether-à-go-go-related gene (hERG) potassium channel, sequence (Q12809 whole entry, looked up): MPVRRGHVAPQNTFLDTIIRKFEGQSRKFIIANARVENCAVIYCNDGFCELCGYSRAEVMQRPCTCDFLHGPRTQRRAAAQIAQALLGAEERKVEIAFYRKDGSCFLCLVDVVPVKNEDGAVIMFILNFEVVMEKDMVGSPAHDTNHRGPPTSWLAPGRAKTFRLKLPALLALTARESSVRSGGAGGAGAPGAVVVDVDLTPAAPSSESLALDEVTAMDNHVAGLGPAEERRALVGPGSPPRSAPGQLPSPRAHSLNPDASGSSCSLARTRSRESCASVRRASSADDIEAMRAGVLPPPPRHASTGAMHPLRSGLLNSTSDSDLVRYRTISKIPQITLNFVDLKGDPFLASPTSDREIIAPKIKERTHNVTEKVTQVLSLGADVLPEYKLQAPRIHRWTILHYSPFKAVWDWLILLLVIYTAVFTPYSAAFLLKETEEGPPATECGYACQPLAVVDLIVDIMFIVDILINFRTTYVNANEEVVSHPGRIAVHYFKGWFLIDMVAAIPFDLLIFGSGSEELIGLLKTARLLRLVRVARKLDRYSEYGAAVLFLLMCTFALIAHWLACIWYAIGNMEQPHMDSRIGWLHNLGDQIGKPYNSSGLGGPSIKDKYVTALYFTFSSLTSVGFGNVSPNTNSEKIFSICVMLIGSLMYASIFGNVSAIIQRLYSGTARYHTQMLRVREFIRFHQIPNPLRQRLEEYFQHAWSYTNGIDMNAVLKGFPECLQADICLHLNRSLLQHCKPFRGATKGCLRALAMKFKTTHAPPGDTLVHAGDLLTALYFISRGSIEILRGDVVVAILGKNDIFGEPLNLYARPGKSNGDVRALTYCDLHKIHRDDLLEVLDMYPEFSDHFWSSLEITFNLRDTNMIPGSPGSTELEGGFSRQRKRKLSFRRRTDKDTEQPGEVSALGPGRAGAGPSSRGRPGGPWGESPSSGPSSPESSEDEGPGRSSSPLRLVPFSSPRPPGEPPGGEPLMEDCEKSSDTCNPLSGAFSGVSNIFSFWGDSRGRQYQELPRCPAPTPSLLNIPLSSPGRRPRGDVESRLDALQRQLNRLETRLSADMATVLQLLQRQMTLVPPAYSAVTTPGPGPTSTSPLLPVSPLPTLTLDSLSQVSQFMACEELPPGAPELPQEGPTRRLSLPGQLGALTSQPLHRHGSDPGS

| Compound | hERG current change (%, negative = inhibition) at 1uM [%] |
| --- | --- |
| Cc1ccc(S(=O)(=O)Nc2c(C)n(C)n(-c3ccccc3)c2=O)cc1C(=O)OCC(=O)N1CCCC(C)C1 (stereo not drawn) | 3.73 |
| CCCCCOc1ccc(/C=C/C(=O)NCCc2nc3ccccc3[nH]2)cc1OC | 24.2 |
| CCOC(=O)Cc1csc(NC(=O)C(NC(=O)C2CCCCC2)C(C)C)n1 (stereo not drawn) | 12.3 |
| Clc1cc2nc[nH]c2cc1Cl | -0.867 |
| Fc1ccc(CSc2ncnc3sc4c(c23)CCCC4)cc1 | 12.7 |
| Cn1c(=O)c2c(nc(NCc3ccco3)n2Cc2ccc(Cl)cc2Cl)n(C)c1=O | 5.42 |
| CC(C)=CCN1CCN(Cc2cccn2-c2nccs2)CC1CCO (stereo not drawn) | -1.62 |
| O=C1NC[C@H](c2ccccc2)N(CCC23CC4CC(CC(C4)C2)C3)C1=O | 16.6 |
| O=c1[nH]cnc(O)c1C(c1ccc2c(c1)OCO2)c1c(O)nc[nH]c1=O | -1.24 |
| CCC(C(=O)OCn1nnc2ccccc2c1=O)c1ccccc1 (stereo not drawn) | 6.51 |
| COc1cc(-c2nnc(NC(=O)C3=COCCO3)o2)cc(OC)c1OC | 1.46 |
| Fc1ccccc1C1CCN(Cc2nc(CC3CC3)no2)C1 (stereo not drawn) | 9.52 |
| Cc1oc(-c2ccccc2)nc1CC(=O)O | 13.8 |
| Cc1cccn2c(=O)c(C(=O)NCCCN3CC(C)CC(C)C3)c(O)nc12 (stereo not drawn) | 9.14 |
| CCN(CC)S(=O)(=O)c1cccc(-c2nnc(SCC(=O)NC3CCCCCC3)n2N)c1 | 3.46 |
| Cc1ccc(C2=NNC(C(O)C(O)C(O)C(O)CO)S2)cc1 (stereo not drawn) | 3.13 |
| Cc1ccc(C)c(NC(=O)CCc2c(C)nn(-c3ccc(N4CCCCC4)nn3)c2C)c1 | 10 |
| Cc1ccccc1-n1c(O)c(/C=N/Nc2nc3c(c(=O)n(C)c(=O)n3C)n2C)c(=O)[nH]c1=S | 6.69 |
| COc1ccc(S(=O)(=O)N2CCCCC2)cc1NC(=O)CNc1ccc(F)cc1C | 6.49 |
| COc1ccc(-c2oc3ncnc(NCCCN4CCOCC4)c3c2-c2ccc(OC)cc2)cc1 | 12 |
| Cc1ccc2c(c1)N(CC(=O)NC1CCC(C)CC1)C(=O)c1cccnc1O2 (stereo not drawn) | 7.72 |
| COc1cc(/C=N/Nc2cccc3cccnc23)cc(OC)c1O | 8.96 |

| Compound | hERG current change (%, negative = inhibition) at 1uM [%] |
| --- | --- |
| CCCCn1c(SCC(=O)c2ccccc2)nc2c1c(=O)[nH]c(=O)n2C | -3.8 |
| Cc1ccccc1C(=O)NNC(=O)CN1C(=O)c2ccccc2C1=O | 10.1 |
| C/C(=N\NC(=O)c1ccc(Br)cc1)c1ccccc1 | 9.51 |
| COc1ccccc1CN1CCC(n2nccc2NC(=O)c2ccccc2Cl)CC1 | -47.2 |
| CCOC(=O)c1ccc(NC(=O)CCc2nc(-c3ccccc3)no2)cc1 | 6.73 |
| CC(C)[C@H](NC(=O)N1CCn2c1nc1ccccc12)C(=O)N[C@H](Cc1ccccc1)C(=O)O | -0.935 |
| Cc1ccc(C(=O)COC(=O)c2nc3nccc(C)n3n2)c(C)c1 | 9.22 |
| Cc1ccc(NC(=O)C2=CCN(S(=O)(=O)c3ccc(F)cc3)CC2)c(C)c1 | 11 |
| c1ccc(COC2CCCN(Cc3nc(-c4cccs4)no3)C2)nc1 (stereo not drawn) | -0.784 |
| Cc1ccccc1NC(=O)Cc1cccs1 | 5.16 |
| Cn1c(=O)[nH]c(=O)c2c1nc(Br)n2CCSc1nc2ccccc2o1 | 3.34 |
| NNC(=O)c1cc2c(ccc3ccccc32)o1 | 12.6 |
| Cc1nn(C)c2ncc(C(N)=O)c(Oc3ccc(Cl)cc3)c12 | 11.2 |
| CC(C)c1ccc(NC(=S)NCCc2c[nH]c3ccccc23)cc1 | 14.9 |
| O=C1Nc2ccccc2N2CCCC12 (stereo not drawn) | 17.3 |
| CC(C)CCOP(=O)(c1ccc(N(C)C)cc1)C(O)c1c(Cl)cccc1Cl (stereo not drawn) | 9.28 |
| COc1ccc(C(=O)N2CCC(N3CCN(c4ccccc4)CC3)CC2)cc1.O=C(O)C(=O)O | -29.4 |
| CC(=O)OC1C(OC(C)=O)N(C(C)=O)C(=O)N1C(C)=O (stereo not drawn) | 7.95 |
| CCN(CC)CCOc1cc2c(nn1)Oc1ccccc1N2C.Cl.O | -3.36 |
| CCOc1ccccc1C(=O)NN1CCOCC1 | 17.7 |
| Cc1ccc(NCc2nnc(SCC(=O)c3ccc4c(c3)OCCO4)o2)c(C)c1 | 12.6 |
| Nn1cc(-c2ccccc2)nc1SCC(=O)Nc1ccc2c(c1)OCO2 | -5.26 |

| Compound | hERG current change (%, negative = inhibition) at 1uM [%] |
| --- | --- |
| O=C1c2ccccc2NC(c2ccc(F)cc2)N1Cc1ccco1 (stereo not drawn) | -13.7 |
| Cc1c(-c2ccccc2Cl)nc2ccccc2c1C(=O)O | 8.99 |
| N#Cc1c(NC(=O)COC(=O)c2ccc(S(=O)(=O)N3CCCC3)cc2)sc2c1CCCCC2 | 6.34 |
| CCOC(=O)C1=C(N)Oc2c(oc(CO)cc2=O)C1c1ccccc1 (stereo not drawn) | 0.382 |
| CN(CC(=O)Nc1ccc(F)cc1)C(=O)COC(=O)CNC(=O)c1ccc(Cl)cc1Cl | 9.44 |
| Cc1ccc(NC(=O)[C@H](CC(C)C)NC(=O)[C@@H]2Cc3ccccc3CN2)cc1 | 10.1 |
| O=C(O)c1ccc(NC(=O)C2C3CCC(O3)C2C(=O)O)cc1 (stereo not drawn) | 14.4 |
| CCOC(=O)C1=C(C)N(Cc2ccc(C(=O)O)cc2)C(=O)NC1c1ccc([N+](=O)[O-])cc1 (stereo not drawn) | 14 |
| COc1ccccc1CCNC(=O)/C(=C/c1cccnc1)NC(=O)c1ccccc1 | -1.85 |
| CCN1CCN(C(=S)NC(=O)/C=C/c2cccs2)CC1 | 10.4 |
| C#CCn1cc(Cl)cc(C(=O)Nc2ccccc2)c1=O | 17.3 |
| CCN(CC)c1ccc(NC(=O)CSc2ccsc2[N+](=O)[O-])c(C)c1 | 6.29 |
| O=C1CC(N2CCSCC2)C(=O)N1c1ccc(F)cc1 (stereo not drawn) | -3.86 |
| COc1ccc(NC(=O)CSc2nc3ccsc3c(=O)n2CCC(=O)O)c(OC)c1 | 12 |
| CCc1nnc(NC(=O)CSc2ccc(-c3ccc(F)cc3)nn2)s1 | 18 |
| CCOC(=O)c1c(C)[nH]c(C(=O)OCc2csc(CC(=O)Nc3ccccc3C)n2)c1C | 11.6 |
| Cn1c(C(=O)NCCN2CCc3ccccc3C2)cc2c(=O)n(C)c3ccccc3c21 | 6.51 |
| O=C(CSc1nncs1)Nc1cc(-c2ccccc2)nn1-c1ccccc1 | -1.34 |
| O=C(NCc1ccccc1)c1ccc(N2CCC3(CC2)CC(c2ccccc2)=NO3)c([N+](=O)[O-])c1 | 12.2 |
| Cc1ccc(Cn2nc(-c3ccccc3)nc2-c2ccccc2)cc1 | 10.6 |
| O=C(CSC(=S)N1CCCC1)N1CCN(S(=O)(=O)c2ccccc2F)CC1 | -2.31 |
| O=C(NNc1nc2c(F)cc(F)cc2s1)C1COc2ccccc2O1 (stereo not drawn) | -2.36 |

| Compound | hERG current change (%, negative = inhibition) at 1uM [%] |
| --- | --- |
| CC(C)(C)NC(=O)c1cccc2c1OC(C)(C)C2 | -5.35 |
| COc1ccc(N2CCN(C(=O)CNS(=O)(=O)c3ccc(Br)s3)CC2)cc1 | 0.732 |
| CCOc1ccccc1N(C(C)=O)S(=O)(=O)c1ccc(Cl)cc1 | 11.5 |
| CCCCc1c(O)nc(SCC(=O)NCC2CCCO2)[nH]c1=O (stereo not drawn) | 0.0534 |
| O=C(NCc1ccc(Cl)c(Cl)c1)c1cccnc1 | 8.17 |
| COc1cccc(Sc2cc(N3CCOCC3)nc(-c3ccccc3)n2)c1 | 5.83 |
| O=C(NNC(=O)c1ccccc1F)c1cccc(-n2cccc2)c1 | 2.75 |
| CCCOc1ccc(NC(=O)CC2C(=O)N(Cc3ccccc3)C(=S)N2Cc2cccs2)cc1 (stereo not drawn) | 14.9 |
| O=c1cc(-c2ccccc2Cl)oc2c(NS(=O)(=O)c3cccc4nsnc34)ccc(O)c12 | 12.2 |
| COCCCNC(=O)c1c(N)n(-c2ccc(S(N)(=O)=O)cc2)c2nc3ccccc3nc12 | -4.03 |
| CSc1ccc(CN(C)C(=O)c2ccc(S(=O)(=O)Nc3ccccc3)cc2)cc1 | 6.81 |
| CCOc1nonc1C(=N)/C(C(C)=O)=C(\C)O | 8.1 |
| COc1ccccc1N1CCN(/N=C\C(Br)=C\c2ccccc2)CC1 | 7.48 |
| CC(C)(C)N1CC(C(=O)Nc2ccc(S(=O)(=O)N3CCCCC3)cc2)CC1=O (stereo not drawn) | 7.58 |
| O=C(c1ccccc1F)N1CCN(c2cccc(C(F)(F)F)c2)CC1 | 14 |
| COc1cccc(OC)c1C(=O)Nc1cccc(C(C)=O)c1 | 8.94 |
| CCCCn1c(N)c(Sc2ccc([N+](=O)[O-])cc2)c(=O)[nH]c1=O | -24 |
| O=C1CCCc2[nH]c3cccc(/C(=C/c4ccccc4)c4ccccc4)c3c21 | 10.7 |
| O=C1c2ccccc2CN1Cc1ccccc1 | 12.3 |
| CC1(C)C(c2ccccc2)=NC(c2cccnc2)=[N+]1[O-] | 14.4 |
| CCN(CC)C(=O)CC(c1ccc(OC)cc1)c1c(O)cc(OC)cc1OC (stereo not drawn) | -3.63 |
